Laboratory results reported in ChEMBL document CHEMBL4888484, “Replenishing the malaria drug discovery pipeline: Screening and hit evaluation of the MMV Hit Generation Library 1 (HGL1) against asexual blood stage Plasmodium falciparum ,using a nano luciferase reporter read-out” (2022).
In all, about 150,000 compounds went through this assay and about 540 (0.36%) showed an effect of 50% or more. The list shows a part of the results.

Each compound was assayed on Plasmodium falciparum (assay: Primary screen in NF54 nanoGlo assay, in single point, at 2uM, 72h; a lower Z score goes with more inhibition). Settings: timepoint 72 hour.
Type: functional, Erythrocyte

SMILES | % Inhibition | Z score
Cc1cc(C(=O)N(C)C[C@H]2CCCOC2)nn1-c1ccc(Cl)cc1Cl | -4% | 0.46
CC[C@@H](C(=O)N1CCN(c2ccc(NC(=O)c3ccccc3F)cc2C(=O)NCc2ccc(F)cc2)CC1)c1ccccc1 | -26% | 2.25
CN(CCc1noc(C2CCCCC2)n1)S(=O)(=O)c1ccc(Cl)s1 | -6% | 0.61
O=C(Cc1cccn1-c1ccc(Cl)cc1)NCCCN1CCCC1 | -8% | 1.5
CN(C(=O)c1ccoc1)c1ncccc1F | -3% | 0.39
CC1CC(NC(=O)CCc2cnccn2)C(=O)N1c1ccccc1 (stereo not drawn) | 4% | -0.76
O=C(c1cncc(N2CC[C@H](CO)[C@@H](O)C2)n1)N1CCCCC1 | -15% | 1.9
CC1c2ccccc2OC1C(=O)NCC1CN(C(=O)c2ccccc2)C2CCN1C2 (stereo not drawn) | -10% | 1.18
Cc1ccc(S(=O)(=O)N2CCC(CNC(=O)C3CCOCC3)CC2)s1 | -2% | 0.31
Cc1noc(C2CCN(C(C)c3cccc(C#N)c3)C2)n1 (stereo not drawn) | -5% | 0.93
COc1ccc(-n2cc(-c3ccccc3)nc2NC(=O)CN(CC2CC2)C(=O)C(C)C)cc1OC | -3% | 0.49
Cc1c(C(=O)N2CC3(CCOC3)C2)oc2ccccc12 | 4% | -0.59
Cc1cc(C(=O)COc2cccc(S(C)(=O)=O)c2)c(C)n1[C@H]1CCS(=O)(=O)C1 | 27% | -3.61
O=C1OCCN1CC(=O)N1CCC[C@H]1c1nc2ccccc2s1 | -1% | 0.07
CCc1ccccc1CNC(=O)c1ccc(C(F)(F)F)c(=O)[nH]1 | 8% | -1.19
O=C(c1ccco1)N1CCN(c2nccn3nc(-c4ccc(Cl)cc4)cc23)CC1 | -5% | 0.69
COc1ccc(S(=O)(=O)N2CCN(c3nc4ccccc4nc3C(F)(F)F)CC2)cc1 | -12% | 2.33
Cc1ccc(C)c(C(=O)Nc2nc3cc4c(cc3s2)OCCO4)c1 | -11% | 2.04
Cc1csc([C@H](C)NC(=O)c2ncn[nH]2)n1 | -3% | 0.46
CC1CC(C(N)=O)c2ccccc2N1Cc1nc(Cc2ccccc2)no1 (stereo not drawn) | -5% | 0.65
CN(C)C(=O)c1cc(F)ccc1NCc1cn2ccccc2c1C#N | -13% | 1.73
Fc1cccc(F)c1-c1ncnn1C1CCCCC1 | -6% | 1
Cc1ccc(CCCNC(=O)CCc2ccco2)c(C)c1 | 20% | -2.54
COc1cc(OC)c(N2C[C@@H](C(=O)Nc3ccc(N4CCCC4=O)c(C)c3)CC2=O)cc1Cl | 8% | -0.71
OCCCN(Cc1cccnc1)Cc1cc2c(cc1Br)OCCO2 | -9% | 1.28
CC(C)(C)n1cc(C(=O)OCCNc2cccnn2)cn1 | -3% | 0.51
O=C(COCc1nnc(C(=O)Nc2cccc(F)c2)s1)NC1CCN(Cc2ccccc2)CC1 | -15% | 2.46

SMILES | % Inhibition | Z score
CCn1c(CO)nnc1[C@H]1C[C@@H](NC(=O)[C@H](O)C2CCCCC2)C1 | -3% | 0.41
CCCn1cc(-c2ccncc2)cc1C(=O)NC1CCCC1 | -6% | 0.64
O=C(c1ccc2ncsc2c1)N1CC(Cn2nc(C3CC3)ccc2=O)C1 | -16% | 3.12
CC(=O)N1CCC[C@H](C(=O)N2CCC3(CC2)C(=O)N(C)c2ccccc23)C1 | -5% | 1
COc1ccc(-n2cc(-c3ccc4c(c3)OCO4)n(CC(=O)Nc3cccc(C)c3)c2=O)cc1 | 11% | -2.01
Cc1cnn(CCNC(=O)CC[C@H](C)N2CCN(C)CC2)c1 | 6% | -1.04
O=C(Cc1ccc(F)cc1)NCC1(CO)CC1 | 7% | -1.1
Cc1nc(NC(=O)C(C)N2CCCCC2Cn2cncn2)sc1C (stereo not drawn) | 6% | -0.82
CCc1ccc2nc(C)cc(C(=O)N3CCc4nc(C)[nH]c(=O)c4CC3)c2c1 | -10% | 1.83
CS(=O)(=O)c1cnn(Cc2noc3c2CCCC3)c1 | 5% | -0.66
CS(=O)(=O)CCC(=O)N(Cc1cccc2ccccc12)C1CC1 | -12% | 1.71
CC(C)OCC(=O)N1CCC[C@](C)(F)C1 | -2% | 0.32
CC(C)[C@H](Cn1cccn1)NCC(C)(C)Cc1ccccc1 | -8% | 1.23
Cc1noc(C)c1CNc1ccc2c(c1)C(=O)N(C)C2=O | 4% | -0.6
CC1CCCC(CC(=O)N2C[C@@H](C)[C@H](C(N)=O)C2)C1 (stereo partly drawn) | -9% | 1.22
O=C(NCc1ccco1)Nc1cccc(-c2nnco2)c1 | -13% | 2.02
O=C(c1c[nH]nn1)N1CCOC[C@H]1c1nc(-c2cccs2)no1 | -2% | 0.3
COc1ccc(C(=O)NC[C@H]2CCCN3CCCC[C@@H]23)cc1 | -17% | 2.08
CC1CCCC(NC(=O)NCCN2C(=O)CCC2=O)CC1 (stereo not drawn) | -14% | 2.68
O=C(NC1CCCCC1)C(=Cc1cccc(O)c1)C(=O)NC1CCCCC1 | -19% | 2.31
COc1cc(F)cc(CNC(=O)NCc2nn(C)cc2Cl)c1 | -9% | 1.43
C[C@H](NC(=O)c1ccco1)c1nc(-c2ccc(=O)n(C)c2)no1 | 31% | -4.55
O=C(Nc1nncs1)C(F)(F)C(F)(F)C(F)(F)C(F)(F)F | 6% | -0.74
CC(C)C(=O)N1CCC[C@H](c2nnc3ccccn23)C1 | -1% | 0.07
CCC1CN(CCCN2C(=O)CNC2=O)CCC1c1ccccc1 (stereo not drawn) | 33% | -4.5
CC(C)(CN1CCCn2nc(CNC(=O)C3CCC3)cc2C1)N1CCOCC1 | -11% | 1.41
Cc1c(NC(=O)C(=O)N(C)CCN(C)C)cccc1N(C)C | -12% | 1.64
